Test results: the supplement of paper PMC3334620
In all, about 33,000 sequences were measured (“E-score (-0.5 to 0.5)”: median about -0.012, highest 2% from about 0.27 on). The list shows a part of the results.

target: T1, Vhr1 (UniProt P40522); experiment: PBM E-score (8-mer binding enrichment) (E-score (-0.5 to 0.5)); higher = stronger / more preferred TF binding; most listed sequences are background and not binding sites; settings: protein concentration: 200 nM; construct: GST-full length
T1 sequence: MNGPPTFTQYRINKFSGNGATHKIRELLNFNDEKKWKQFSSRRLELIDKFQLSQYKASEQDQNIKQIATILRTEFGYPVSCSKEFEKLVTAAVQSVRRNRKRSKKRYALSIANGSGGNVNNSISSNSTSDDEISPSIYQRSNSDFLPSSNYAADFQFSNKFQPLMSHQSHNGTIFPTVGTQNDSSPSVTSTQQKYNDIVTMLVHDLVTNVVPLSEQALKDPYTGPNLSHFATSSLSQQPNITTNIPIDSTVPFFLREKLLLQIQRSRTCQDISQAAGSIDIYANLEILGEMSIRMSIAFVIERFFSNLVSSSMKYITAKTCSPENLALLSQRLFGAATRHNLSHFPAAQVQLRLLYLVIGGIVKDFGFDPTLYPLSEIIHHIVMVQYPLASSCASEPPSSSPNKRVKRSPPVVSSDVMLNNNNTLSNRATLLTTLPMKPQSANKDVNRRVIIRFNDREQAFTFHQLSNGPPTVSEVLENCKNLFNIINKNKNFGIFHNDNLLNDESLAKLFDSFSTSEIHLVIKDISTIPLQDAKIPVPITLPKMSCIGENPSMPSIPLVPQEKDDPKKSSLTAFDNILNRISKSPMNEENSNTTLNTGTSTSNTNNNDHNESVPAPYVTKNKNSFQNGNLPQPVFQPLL
Procedure, shortened: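 Yeast transcription factors, full-length or as DNA-binding domains, were expressed with a GST tag using PURExpress in vitro transcription/translation. At about 100-200 nM they were applied to universal all-10-mer Agilent arrays, double-stranded by primer extension on fresh or once-stripped slides. Fluorescent anti-GST detected bound protein, and masliner normalised the scans. E-scores for ungapped eight-base words, pooled with reverse complements, came from the Universal PBM Analysis Suite.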

Sequence | PBM E-score
CTATGACC | 0.0448
TCGGACCA | -0.0894
AACTATCG | -0.00583
GCGAGATA | 0.0156
ACGAGAGC | -0.0151
ACTAGCTA | 0.115
AGGGCTAA | -0.206
GCGTCGTA | 0.0112
CCTGCAGA | 0.127
AACCGCCC | 0.0139
CACAATGC | 0.132
GTTTGTAA | -0.116
CCCAGATC | -0.129
ACATTCTG | -0.0402
CAAGAGTC | 0.296
GCATAACC | -0.129
ATACCCGG | 0.0288
ATGGAAAC | 0.0483
CACTGGGG | -0.154
CAGACAAA | -0.0629
GACTGCCC | 0.00579
GATGGAGC | -0.00182
AAGGCTAA | -0.104
GAAAGCAC | 0.0106
ATGAATCG | 0.214

Sequence | PBM E-score
GCAGTGGA | 0.119
ACACTTAG | 0.00688
AGCGGGAC | -0.019
GATTACGA | 0.0511
AAAGCGTT | -0.214
CCCGTAGG | -0.157
CGAGTTAG | 0.064
GACAGGGA | 0.0588
CGCTCCCA | -0.111
CCTAACTA | -0.0949
CTACACAA | 0.139
GGCACCCA | 0.0262
ATAGCCGG | 0.00431
CCTCCATA | -0.18
ACGCAGGC | 0.0752
AAGTCCTG | 0.0661
TAAGGTGA | 0.0626
CGAAGTAG | -0.054
CGGTACCA | -0.0508
CTTTACGA | -0.236
ATATTAAA | 0.122
AAAAAGGA | -0.155
TGTTAAAA | -0.239
CCTGAAGC | -0.167
CTCAGGTA | 0.089

Sequence | PBM E-score
ACGGCTCC | -0.0297
ATTAATAC | 0.22
ACAACGAC | 0.254
GAGGCCTC | -0.162
CCTAGGCA | -0.148
ACGTTAGC | 0.0427
ATGTACTG | 0.0855
CAGTAAAC | 0.0383
CGGCTGAG | 0.217
CTCCCGAG | -0.00471
CGAGTGCA | -0.00982
AGCTTATC | 0.0364
GCGGTGGA | 0.0748
AGGCGGAT | -0.00314
CCTTACTC | 0.22
ATTGCGAC | 0.263
CACTTCTC | -0.0137
GGTGAGCA | 0.173
CATAGCAA | 0.00383
CTCGTAAG | 0.0866
GCATGTAC | -0.0959
ATAGCAGA | 0.0476
AAGCCGCA | -0.0375
AGCCAAGC | -0.0896
GCTCTCAA | -0.0323

Sequence | PBM E-score
GATTCCCC | 0.0301
AACTGTTG | 0.0056
GAAGTCGA | -0.0123
ATGGTTTG | 0.165
GAAAGGCC | -0.108
GGGAACCA | 0.176
CTGGTACA | 0.0626
GGGGACTA | -0.06
CAAAACAG | 0.108
CTAGATAC | 0.0175
AATCGGAG | 0.156
CAAGACAA | -0.087
AAAACTAT | -0.0485
AGTAAAGA | -0.0274
AATTTATC | 0.191
ACCTGGAC | 0.0512
GAACACCC | -0.0929
GCGACAGA | 0.0471
AGGTAAAA | -0.215
TTGTACAA | -0.266
GCAGCTGA | -0.0605
AATCTTTG | -0.219
CTACAAAA | 0.0722
TGCTCCCA | -0.106
GGGTGCCA | -0.00054

Sequence | PBM E-score
CTAGGTCC | -0.0836
AGCCACCG | 0.148
AAGACCAG | 0.0245
AACTACGC | 0.0352
GTCCACAC | 0.045
GATATATC | 0.0354
ACTGAGTA | 0.263
CTGGAATA | 0.157
AACAGGCA | -0.169
GTCACCCA | 0.311
CTTACACA | -0.051
CGTTTAGA | -0.209
GAGCGCCA | -0.161
GTAGCAAC | -0.101
CACGTTGG | 0.0111
ACGGCGCG | 0.107
ACTCCATA | 0.264
ATAGCCGC | -0.0372
CGTCGACC | -0.00578
CACCGCAG | -0.00862
ACAGCAAA | 0.014
CGTGGAAA | 0.139
AGAGCATA | -0.144
CGCAGCAC | 0.0469
AATATGGG | 0.124

Sequence | PBM E-score
CTTGCTCA | -0.075
ACATACAT | 0.252
GCCGGAAC | 0.049
ACATTTCA | -0.0562
ATAGTTCA | -0.136
AATCCCGA | 0.195
ATAATGCA | 0.0456
ACACCCGG | 0.159
AGTTGCAT | -0.0357
CGTCTGCC | -0.0382
ATTCTTGC | 0.0525
GCTCGGAC | -0.176
GCCGCAAA | 0.0311
TATTAGAA | 0.0146
ACCCTAAA | 0.0127
AGGAAAAA | -0.254
CCCATGGG | 0.285
GTATACTA | 0.124
GCAGGTAC | -0.0161
ACCATGGG | 0.108
ATGCTACC | 0.103
AAAGCGAT | -0.0512
CGCTACAG | -0.109
ATTCGATA | 0.102
CAAGACGC | 0.0697

Sequence | PBM E-score
GGAAAAAA | -0.304
CACCAAGG | 0.0118
GAGAAAAA | -0.253
TCCGGTAA | -0.173
CGTAATGC | -0.0238
AATACCTA | 0.0084
TCAAGAAA | -0.134
AGAAGCAT | -0.0793
AAGGTTCT | -0.0107
CTATGTCC | -0.024
CCTGGTTC | 0.0927
AAGAAAAC | -0.199
ATATCGAA | 0.152
ATACGGAC | -0.057
ACGATCTC | -0.167
CAGCGGGA | 0.151
AGAAAATC | -0.0625
ACGATTTC | -0.0302
AGATCGAT | 0.0197
ACACACCG | 0.223
AGTCTCTG | 0.121
ATCAAGTC | 0.0941
